The values that follow come from the supplement of paper PMC9446081.

In all, about 39,000 compounds went through this assay and about 220 (0.56%) showed activity. Some of the results follow.
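Also: static incubation at 37 °C against the wild-type strain, values averaged over two biological replicates.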

The experiment relates to Escherichia coli K-12 BW25113. Kind of experiment: relative growth (OD600 normalised to plate interquartile mean) (fraction); higher = less growth inhibition, active = 0.2 or less. As to conditions: 50 µM; LB; incubation time: overnight (16-24 h).
Consider `C[C@H](CO)N1C[C@H](C)[C@@H](CN(C)Cc2ccc(C(F)(F)F)cc2)Oc2c(NC(=O)Nc3ccc4c(c3)OCO4)cccc2C1=O`, for which the relative growth was inactive: 0.841.

In the case of `C[C@@H]1CN([C@@H](C)CO)C(=O)Cc2cc(NC(=O)CCC(F)(F)F)ccc2O[C@H]1CN(C)C(=O)Nc1cccc2ccccc12`, the relative growth was inactive: 1.02.

As for `Cc1noc(C)c1S(=O)(=O)Nc1ccc2c(c1)CC(=O)N([C@H](C)CO)C[C@H](C)[C@@H](CN(C)S(=O)(=O)c1cccs1)O2`, the relative growth is inactive: 0.987.

`C[C@@H]1CN([C@@H](C)CO)C(=O)c2cc(NC(=O)Cc3ccccc3)ccc2O[C@@H](C)CCCCO[C@@H]1CN(C)C(=O)Cc1ccccc1`: the relative growth is inactive: 1.02.

Regarding `C[C@@H]1CN([C@H](C)CO)C(=O)Cc2cc(NC(=O)Nc3ccc(C(F)(F)F)cc3)ccc2O[C@H]1CN(C)Cc1ccc(C(=O)Nc2ccccc2N)cc1`, the relative growth is inactive: 1.06.

As to `Cc1ccc(S(=O)(=O)N(C)C[C@@H]2Oc3ccc(NC(=O)c4ccncc4)cc3C(=O)N([C@H](C)CO)C[C@@H]2C)cc1`, the relative growth is inactive: 1.02.

In the case of `CC(C)NC(=O)N(C)C[C@@H]1Oc2ccc(NS(=O)(=O)c3ccc(Cl)cc3)cc2CC(=O)N([C@H](C)CO)C[C@H]1C`, the relative growth was inactive: 1.01.

Take `C[C@H]1CN([C@@H](C)CO)S(=O)(=O)c2ccc(C#Cc3ccccc3)cc2O[C@@H]1CN(C)C(=O)Cc1ccccn1`: the relative growth is inactive: 0.977.

In the case of `Cc1noc(C)c1NC(=O)N(C)C[C@H]1OCCCC[C@@H](C)Oc2ccc(NC(=O)Nc3ccc(C(F)(F)F)cc3)cc2C(=O)N([C@@H](C)CO)C[C@H]1C`, the relative growth is inactive: 0.981.

Consider `C[C@@H]1CN([C@@H](C)CO)C(=O)c2cc(NC(=O)Cc3ccccc3)ccc2O[C@@H](C)CCCCO[C@@H]1CN(C)S(=O)(=O)c1cccs1`, for which the relative growth was inactive: 1.01.

For the molecule `Cc1noc(C)c1NC(=O)Nc1ccc2c(c1)C(=O)N([C@@H](C)CO)C[C@@H](C)[C@H](CN(C)Cc1ccc(C(=O)Nc3ccccc3N)cc1)O2`, the relative growth was inactive: 1.05.

For `CCCCCCCCCCCCCC(=O)OC(C)C`, the relative growth was inactive: 1.04.

As to `CC(O)(P(=O)(O)O)P(=O)(O)O`, the relative growth was inactive: 0.992.

`C[C@H]1CCCCO[C@@H](CN(C)C(=O)C2CCCCC2)[C@@H](C)CN([C@@H](C)CO)C(=O)c2cc(NS(=O)(=O)c3cccs3)ccc2O1`: the relative growth was inactive: 0.977.

Take `C[C@H]1CN([C@@H](C)CO)C(=O)c2cc(NS(=O)(=O)c3cccs3)ccc2O[C@@H]1CN(C)S(=O)(=O)c1ccccc1`: the relative growth is inactive: 0.978.

With `C[C@@H]1CCCCO[C@@H](CN(C)Cc2ccc3c(c2)OCO3)[C@@H](C)CN([C@H](C)CO)C(=O)c2cc(NC(=O)Nc3cccc4ccccc34)ccc2O1`, the relative growth is inactive: 1.07.

For `NC(=O)c1ccc[n+](CC(=O)N2CCCCC2)c1`, the relative growth was inactive: 1.03.

On to `Cc1noc(C)c1NC(=O)Nc1ccc2c(c1)C(=O)N([C@H](C)CO)C[C@H](C)[C@@H](CN(C)Cc1ccc3c(c1)OCO3)OCCCC[C@H](C)O2`, for which the relative growth is inactive: 0.993.

In the case of `COc1ccc(S(=O)(=O)Nc2ccc3c(c2)[C@@H]2C[C@H](CC(=O)NCC4CC4)O[C@H](CO)[C@@H]2O3)cc1`, the relative growth was inactive: 1.02.

For the molecule `C[C@H](CO)N1C[C@H](C)[C@H](CN(C)S(C)(=O)=O)OCc2cnnn2CCCC1=O`, the relative growth is inactive: 1.01.

In the case of `O=c1[nH]c(=O)n([C@@H]2O[C@H](CO)[C@@H](O)[C@H]2O)cc1Br`, the relative growth was inactive: 0.988.

Take `CC(C)n1c(-c2ccccc2)cs/c1=N\c1ccccc1`: the relative growth was inactive: 0.934.

With `C[C@H](CO)N1C[C@H](C)[C@H](CN(C)Cc2ccc(Oc3ccccc3)cc2)Oc2ccc(NC(=O)Cn3cnnn3)cc2CC1=O`, the relative growth was inactive: 0.988.

Take `C[C@H]1CN([C@@H](C)CO)C(=O)c2cc(NS(=O)(=O)c3ccccc3)ccc2O[C@@H]1CN(C)Cc1ccc(Cl)c(Cl)c1`: the relative growth is inactive: 0.979.

For `COc1ccc(NC(=O)N(C)C[C@H]2OCCCC[C@@H](C)Oc3ccc(NC(=O)Nc4ccc5c(c4)OCO5)cc3C(=O)N([C@@H](C)CO)C[C@H]2C)cc1`, the relative growth is inactive: 1.01.

As to `Cc1ccc(C(C)C)c(O)c1`, the relative growth is inactive: 0.967.

Take `Cc1noc(C)c1S(=O)(=O)Nc1ccc2c(c1)CC(=O)N([C@@H](C)CO)C[C@@H](C)[C@@H](CN(C)Cc1ccc3c(c1)OCO3)O2`: the relative growth is inactive: 0.993.

For the molecule `C[C@@H]1CCCCO[C@@H](CN(C)Cc2ccccc2)[C@H](C)CN([C@H](C)CO)C(=O)c2cc(NC(=O)Nc3ccc(C(F)(F)F)cc3)ccc2O1`, the relative growth is inactive: 0.989.

Turning to `C[C@@H]1CN([C@H](C)CO)C(=O)c2cc(NC(=O)Nc3ccccc3)ccc2O[C@@H](C)CCCCO[C@@H]1CN(C)S(=O)(=O)c1ccccc1`, the relative growth was inactive: 0.987.

Turning to `C[C@@H]1CN([C@@H](C)CO)C(=O)Cc2cc(NC(=O)c3ccncc3)ccc2O[C@H]1CN(C)C(=O)Nc1ccc2c(c1)OCO2`, the relative growth was inactive: 0.983.

Consider `C[C@@H]1CN([C@H](C)CO)C(=O)c2cc(C#CCN(C)C)cnc2O[C@@H]1CN(C)C(=O)Nc1cccc(F)c1`, for which the relative growth was inactive: 1.03.

For the molecule `O=c1ccc(-n2cccn2)n[nH]1`, the relative growth was inactive: 1.

With `C[C@H](CO)N1C[C@H](C)[C@H](CN(C)Cc2ccc(Cl)c(Cl)c2)OCc2ccccc2-c2ccccc2C1=O`, the relative growth was inactive: 0.972.

Take `O=C(C[C@@H]1C[C@@H]2c3cc(NS(=O)(=O)c4ccc(F)cc4)ccc3O[C@@H]2[C@@H](CO)O1)NCc1ccncc1`: the relative growth is inactive: 0.984.

For `CCC1NC(=O)c2cc(S(N)(=O)=O)c(Cl)cc2N1` (centres undefined), the relative growth is inactive: 1.13.

Regarding `C[C@@H]1CN([C@H](C)CO)C(=O)c2cc(NC(=O)Nc3cccc4ccccc34)ccc2O[C@@H](C)CCCCO[C@@H]1CN(C)Cc1ccc2c(c1)OCO2`, the relative growth was inactive: 1.01.

For the molecule `NC[C@H]1OB(O)c2c(OCCO)ccc(Cl)c21`, the relative growth is inactive: 0.982.

Take `COc1ccccc1C#Cc1ccc2c(c1)O[C@@H](CN(C)C(C)=O)[C@@H](C)CN([C@@H](C)CO)S2(=O)=O`: the relative growth is inactive: 1.01.

For the molecule `COc1ccc(CN(C)C[C@H]2OCCCC[C@@H](C)Oc3ccc(NC(=O)Nc4ccc(OC)cc4)cc3C(=O)N([C@@H](C)CO)C[C@@H]2C)cc1`, the relative growth was inactive: 1.01.
